US20080234193A1

Assays:
[1] = molecular target: human collagen type III (human) (UniProt P02461); experiment: collagen-binding ELISA, value related to VWF:Ag
[2] = molecular target: human collagen type III (human) (UniProt P02461); experiment: collagen-binding ELISA (Technozym VWF:CBA), immobilized human collagen type III
[3] = molecular target: human collagen type III (human) (UniProt P02461); experiment: collagen-binding ELISA, value related to the rVWF protein

Sequence of UniProt P02461 (P02461 154-1221 limits assumed): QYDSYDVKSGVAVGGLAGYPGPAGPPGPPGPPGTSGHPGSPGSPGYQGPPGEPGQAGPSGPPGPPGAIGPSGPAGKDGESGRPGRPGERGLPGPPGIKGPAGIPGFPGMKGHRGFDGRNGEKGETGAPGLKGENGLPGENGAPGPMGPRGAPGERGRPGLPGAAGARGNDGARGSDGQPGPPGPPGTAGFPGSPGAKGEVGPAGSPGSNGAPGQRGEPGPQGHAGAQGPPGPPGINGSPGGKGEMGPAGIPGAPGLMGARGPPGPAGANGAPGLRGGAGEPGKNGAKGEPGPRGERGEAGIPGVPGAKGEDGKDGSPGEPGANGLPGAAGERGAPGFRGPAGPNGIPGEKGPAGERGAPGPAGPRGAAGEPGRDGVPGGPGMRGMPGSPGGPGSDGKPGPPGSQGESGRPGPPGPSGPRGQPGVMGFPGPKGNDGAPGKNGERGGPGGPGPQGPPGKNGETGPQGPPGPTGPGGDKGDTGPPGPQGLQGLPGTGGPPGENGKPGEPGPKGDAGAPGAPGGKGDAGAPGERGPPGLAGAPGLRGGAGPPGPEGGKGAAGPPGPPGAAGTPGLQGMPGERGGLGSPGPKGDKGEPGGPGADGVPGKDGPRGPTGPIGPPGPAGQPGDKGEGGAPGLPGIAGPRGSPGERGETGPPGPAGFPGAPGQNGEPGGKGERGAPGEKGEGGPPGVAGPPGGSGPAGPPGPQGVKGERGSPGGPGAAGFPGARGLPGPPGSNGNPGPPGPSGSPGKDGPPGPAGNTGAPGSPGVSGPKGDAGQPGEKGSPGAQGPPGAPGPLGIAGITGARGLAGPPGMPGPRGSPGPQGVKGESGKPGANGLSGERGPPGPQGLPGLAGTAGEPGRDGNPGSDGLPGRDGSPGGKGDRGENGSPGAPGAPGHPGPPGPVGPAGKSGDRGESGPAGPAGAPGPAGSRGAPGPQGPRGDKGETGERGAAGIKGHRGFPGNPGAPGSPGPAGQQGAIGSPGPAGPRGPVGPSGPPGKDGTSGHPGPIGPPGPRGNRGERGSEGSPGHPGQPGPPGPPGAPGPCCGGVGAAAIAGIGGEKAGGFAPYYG

## native rVWF 133P1 (a stretch of the chain, letters omitted)
[1]
  VWF:CB (U/IUAg): 1.16 U/IUAg
[2]
  VWF:CB (U/ml): 63.5 U/ml
[3]
  VWF:CB (U/mg): 185 U/mg
